In article PMC6919601, “Identification of Plasmodium dipeptidyl aminopeptidase allosteric inhibitors by high throughput screening” (PLoS ONE, 2019):
Several values for one entry are separate records, joined by “and”; a condition that tells them apart may be missing. Identical values can stand only once. Among all 110,000 compounds or so, about 230 (0.21%) showed an effect of 50% or more. This is one part of the list.
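Further: 30 min substrate incubation versus DMSO and 10 µM JCP410 controls.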

Each compound was assayed against DPAP1 (Plasmodium falciparum, UniProt Q8IIJ9) (assay: primary screen, percent inhibition; read by cleavage of a fluorogenic dipeptide substrate; higher = more effect of the substance).
Sequence of DPAP1 (Q8IIJ9 whole entry, looked up): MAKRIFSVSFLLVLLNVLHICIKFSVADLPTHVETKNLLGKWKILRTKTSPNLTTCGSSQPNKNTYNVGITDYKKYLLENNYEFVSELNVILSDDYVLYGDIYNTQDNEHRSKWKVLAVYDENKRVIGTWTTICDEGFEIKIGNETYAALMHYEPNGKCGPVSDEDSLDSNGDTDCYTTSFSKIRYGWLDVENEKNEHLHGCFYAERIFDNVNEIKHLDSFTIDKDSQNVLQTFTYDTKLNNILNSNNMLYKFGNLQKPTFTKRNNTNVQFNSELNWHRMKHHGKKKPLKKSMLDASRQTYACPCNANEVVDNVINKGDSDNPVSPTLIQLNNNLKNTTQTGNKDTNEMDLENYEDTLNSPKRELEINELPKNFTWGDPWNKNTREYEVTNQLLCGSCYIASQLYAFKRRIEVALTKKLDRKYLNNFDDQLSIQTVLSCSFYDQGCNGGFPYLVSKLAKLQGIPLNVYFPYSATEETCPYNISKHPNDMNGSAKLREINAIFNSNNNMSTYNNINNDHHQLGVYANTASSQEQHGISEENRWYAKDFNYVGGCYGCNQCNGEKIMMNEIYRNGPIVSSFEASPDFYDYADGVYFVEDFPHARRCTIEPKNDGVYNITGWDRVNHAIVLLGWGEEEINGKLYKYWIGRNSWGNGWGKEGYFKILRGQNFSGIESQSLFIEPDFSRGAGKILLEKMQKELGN
Set-up: species or system P. falciparum D10 trophozoite lysates; single well
In the case of `O=C(COc1ccc(Cl)cc1)Nc1ccc(Cl)c(Cl)c1`, the “% Inhibition @ 10 uM” value is reported as 8.26%. In the case of `Cc1cc(OCCCOc2cccc(/C=C3\NC(=O)NC3=O)c2)ccc1Cl`, the “% Inhibition @ 10 uM” value is reported as -0.178%. For `CCn1ncc(C(=O)NCc2ccccc2Cl)c1C`, the “% Inhibition @ 10 uM” value was -0.171%. `Cc1occc1C(=O)N1CCN(c2ccc([N+](=O)[O-])cc2)CC1` was tested, and the “% Inhibition @ 10 uM” value was 4.26%. For `O=[N+]([O-])c1cc2c3nnc(O)c-3c3n(c2cc1Cl)CCCCC3`, the “% Inhibition @ 10 uM” value was 9.67%. With `COc1ccc(-c2noc(CN(C(=O)c3cc(Cl)ccc3OC)C(C)C)n2)cc1` the “% Inhibition @ 10 uM” value was -1.54%. For `CCCCOc1ccccc1/C=c1\sc2nc(-c3ccncc3)nn2c1=O`, the “% Inhibition @ 10 uM” value was -1.52%. For `Cn1c2ccccc2c2cnn(CC(=O)N3CCN(Cc4ccc5c(c4)OCO5)CC3)c(=O)c21`, the “% Inhibition @ 10 uM” value was -3.67%. With `c1ccc(C2CCCC(c3ccccc3)S2)cc1` (centres unmarked) the “% Inhibition @ 10 uM” value was 2.3%. In the case of `COC(=O)c1sccc1NC(=O)CSc1nnc2c3ccccc3n(C)c2n1`, the “% Inhibition @ 10 uM” value is reported as -5.96%. `Nc1cc(C(=O)O)ccc1N1CCOCC1` was tested, and the “% Inhibition @ 10 uM” value was 3.29%. In the case of `COc1cc2c(c(OC)c1OC)C(SC)=NC(C)(C)C2`, the “% Inhibition @ 10 uM” value is reported as -1.69%. In the case of `CCOc1ccc(OCc2ccc(C(=O)NCc3ccncc3)o2)cc1`, the “% Inhibition @ 10 uM” value is reported as -5.5%. With `CC(=O)N(C)c1ccc(NC(=O)C23CC4CC(C2)CC(n2cnc(Br)n2)(C4)C3)cc1` the “% Inhibition @ 10 uM” value was 6.74%. In the case of `CC(C)CCNC(=O)c1cnn(C)c1C1CCN(C(=O)OC(C)(C)C)CC1`, the “% Inhibition @ 10 uM” value is reported as 8.23%. With `CCn1c(C(=O)N2CCC(C(=O)NC3CCCC(C)C3C)CC2)cc2sccc21` (centres unmarked) the “% Inhibition @ 10 uM” value was 4.95%. `O=C(Nc1ccc(Cl)cc1)Nc1ccccc1C(F)(F)F` was tested, and the “% Inhibition @ 10 uM” value was 1.29%. `Cc1ccccc1CSc1nc2ccncc2n1CC(=O)NCCC1=CCCCC1` was tested, and the “% Inhibition @ 10 uM” value was 11.3%. With `CCOC(=O)c1conc1-c1cccs1` the “% Inhibition @ 10 uM” value was -3.5%. `CCCNC(=O)C1CN1Cc1ccccc1` (centres unmarked) was tested, and the “% Inhibition @ 10 uM” value was 6.52%. `CC1Nc2ccccc2-c2c(NC(=O)CN(C)C)c3ccccc3n21` (centres unmarked) was tested, and the “% Inhibition @ 10 uM” value was -3.93%. With `COc1ccc2occ(CC(=O)Nc3sc4c(c3C(=O)NCc3ccccc3)CCCC4)c2c1` the “% Inhibition @ 10 uM” value was 0.401%. For `Cc1cs/c(=N\C(=O)c2ccccc2)n1CCc1ccccc1`, the “% Inhibition @ 10 uM” value was -2.97%. In the case of `N#C/C(=C\c1ccc(Cl)cc1Cl)c1nc(-c2ccc(Br)cc2)cs1`, the “% Inhibition @ 10 uM” value is reported as 4.16%. `COc1ccc2c(C)c(CC(=O)N3CCOCC3)c(=O)oc2c1OC` was tested, and the “% Inhibition @ 10 uM” value was 0.895%. With `COc1cccc2c1NC(c1ccc(F)cc1)C1CC=CC21` (centres unmarked) the “% Inhibition @ 10 uM” value was 8.32%. `Cc1nc(N)sc1-c1csc(NCCc2ccccc2)n1` was tested, and the “% Inhibition @ 10 uM” value was 1.32%. With `CCC(CC)C(=O)Nc1nc2ccccc2s1` the “% Inhibition @ 10 uM” value was -1.12%. For `Nc1c(C(=O)c2ccccc2)sc2nc3c(cc12)CN(Cc1ccccc1)CC3`, the “% Inhibition @ 10 uM” value was 3.96%. In the case of `CCOCCCNC(=O)c1ccc(-n2c(C)cc3c2CCCC3)cc1`, the “% Inhibition @ 10 uM” value is reported as 8.8%. With `Cc1ccnc(NC(=O)Cc2ccc(F)cc2)n1` the “% Inhibition @ 10 uM” value was 0.843%. `O=C(NCCN1CCCC1)c1ccc2c(c1)sc1nc(-c3ccc(F)cc3)cn12` was tested, and the “% Inhibition @ 10 uM” value was 6.13%. `CN1CCC(N(C)Cc2ccc(Cl)cc2Cl)CC1` was tested, and the “% Inhibition @ 10 uM” value was 2.33%. In the case of `Cc1cc(C)n(Cc2ccc(C(=O)Nc3cccc(Br)c3)o2)n1`, the “% Inhibition @ 10 uM” value is reported as -0.67%. For `CC(C)(C)NCCn1c(-c2ccccc2)cn2c3ccccc3nc12`, the “% Inhibition @ 10 uM” value was 1.67%. For `CC(C)C(=O)Nc1nnc(SCc2cc(=O)n3nc(C(C)C)sc3n2)s1`, the “% Inhibition @ 10 uM” value was -1.55%. With `COc1ccccc1NC(=O)C1=C(C)N=C2CC(C)(C)CC(O)=C2C1c1ccccc1OC(C)C` (centres unmarked) the “% Inhibition @ 10 uM” value was 4.67%. In the case of `CCOC(=O)c1c(NC(=S)NCc2ccccc2)sc2c1CC(C(C)C)OC2` (centres unmarked), the “% Inhibition @ 10 uM” value is reported as -3.33%. For `Clc1ccc(N2CCN(Cc3ccc(Br)s3)CC2)cc1`, the “% Inhibition @ 10 uM” value was 3.16%. For `O=C1CCCC2=C1C(c1ccc(O)c(Cl)c1)C1=C(CCCC1=O)N2Cc1ccccc1`, the “% Inhibition @ 10 uM” value was 6.58%. For `O=C(NCCCc1ccccc1)c1ccc(CS(=O)(=O)c2ccc(Br)cc2)o1`, the “% Inhibition @ 10 uM” value was 1.68%. `CCCN1CCN(C(=O)c2nn(C)c3c2CS(=O)(=O)c2ccccc2-3)CC1` was tested, and the “% Inhibition @ 10 uM” value was -1.38%. With `OCC1CCCCN1Cc1ccc(F)c(F)c1` (centres unmarked) the “% Inhibition @ 10 uM” value was 2.65%. For `COc1ccc(S(=O)(=O)N2CCC(C(=O)NCC3CCCO3)CC2)cc1` (centres unmarked), the “% Inhibition @ 10 uM” value was -2.45%. With `COc1cc(CN2CCSCC2)c([N+](=O)[O-])cc1OC` the “% Inhibition @ 10 uM” value was -2.81%. For `COCCNc1oc(/C=C/c2ccccc2OC)nc1C#N`, the “% Inhibition @ 10 uM” value was -2.57%. With `CC1(C)CC(=O)C(/C=N/CCN2CCN(C(=O)CC3CCCC3)CC2)=C(O)C1` the “% Inhibition @ 10 uM” value was -0.736% and 6.12%. `Cc1ccc(C(=O)Nc2ccc(Cl)cc2C(=O)O)cc1C` was tested, and the “% Inhibition @ 10 uM” value was 2.01%. In the case of `CCCCN(Cc1ccccc1)C1CCN(CCc2ccccc2)CC1`, the “% Inhibition @ 10 uM” value is reported as 2.1%. In the case of `O=C(O)CN(CC(=O)Nc1ccccc1)S(=O)(=O)c1ccc(Br)cc1`, the “% Inhibition @ 10 uM” value is reported as -3.45%. `COc1cc(C=O)ccc1OCC(=O)N1CCOCC1` was tested, and the “% Inhibition @ 10 uM” value was 1.58%. In the case of `c1ccc(CN2CCN(c3nc4ccccc4c4nc(-c5ccccc5)nn34)CC2)cc1`, the “% Inhibition @ 10 uM” value is reported as -4.21%. With `COc1c(C(=O)NCc2ccc3c(c2)OCO3)ccc2ccccc12` the “% Inhibition @ 10 uM” value was -1.68%. With `CCCCN(C)C(=O)c1oc(=O)c2ccccc2c1-c1ccc(C)cc1` the “% Inhibition @ 10 uM” value was 0.208%. `CCCOC(=O)/C(=C/c1ccc2c(c1)OCO2)NC(=O)c1ccccc1Cl` was tested, and the “% Inhibition @ 10 uM” value was 3.27%. In the case of `CCOC(=O)C1=C(C)OC(N)=C(C#N)C1c1ccc(C)cc1C` (centres unmarked), the “% Inhibition @ 10 uM” value is reported as -0.744%. With `Cc1cc(C)c(S(=O)(=O)Nc2cc(Cl)c(Cl)cc2Cl)c(C)c1` the “% Inhibition @ 10 uM” value was 0.247%. With `FC(F)(F)c1nc(N2CCOCC2)nc2c1CCCCC2` the “% Inhibition @ 10 uM” value was -13.7%. In the case of `CCn1cc(CNC(=O)c2cc(-c3ccccc3)nc3ccccc23)cn1`, the “% Inhibition @ 10 uM” value is reported as 1.39%. With `Nc1nc(-c2cc3cc(Br)cc(Br)c3oc2=O)cs1` the “% Inhibition @ 10 uM” value was 18.1%. For `O=C(O)CCC(=O)Nc1ccc(N2CCN(c3ccc(Cl)cc3)CC2)cc1`, the “% Inhibition @ 10 uM” value was 0.214%. `O=C(Nc1cc(C(F)(F)F)ccc1Cl)c1ccco1` was tested, and the “% Inhibition @ 10 uM” value was -0.294%. In the case of `c1ccc2c(c1)nc1n2CN(C2CCCCCC2)CN1`, the “% Inhibition @ 10 uM” value is reported as 0.415%. For `Cn1c(=O)c2c(nc(SCc3ccccc3C#N)n2C)n(C)c1=O`, the “% Inhibition @ 10 uM” value was -1.6%. `CN1C(=O)C2(C(C#N)=C(N)OC3=C2C(=O)CC(C)(C)C3)c2ccccc21` (centres unmarked) was tested, and the “% Inhibition @ 10 uM” value was 4%.
